# Test results from patent publication US20030027764A1.
# Columns and labels:
# [1] = molecular target: Bee venom (Apis melifera) PLA2 (Apis mellifera) (UniProt P00630); experiment: cell-based or functional assay
# [2] = molecular target: daboiatoxin, the major PLA2 toxin of Daboia russelli siamensis venom (Daboia russelli siamensis); experiment: cell-based or functional assay
substance,measurement,setting,value
anti-inflammatory peptide-2 from Sigma,% Inhibition (mean) of paw oedema; Bee venom PLA2 (1 µg) + AIP-2 (50 µg),[1],43.7%
"recombinant Python Antitoxic Factor (PAF), later renamed Phospholipase Inhibitor from Python (PIP), (from UniProt Q9I8P7 20-201)",% Inhibition (mean) of paw oedema; Daboiatoxin PLA2 (1.5 µg) + PAF (100 µg),[2],92.1%
